# Source: PubChem BioAssay AID504339 (National Center for Advancing Translational Sciences (NCATS), 2011)
# Screen size: about 390,000 compounds; about 17,000 (4.4%) were called active. Inconclusive means that the source gave no clear call. Such entries were picked first, then a sample of the others. Calls follow the shape of the dose curve; as a rule, active = well fitted inhibition curve with a large enough effect; inconclusive = small, poorly fitted or top-dose-only effect; inactive = no such curve, though single readings can be large or run the other way. Where the call is inconclusive, the potency comes from a doubtful curve fit.
# Biological target: Lysine-specific demethylase 4A (Homo sapiens) (UniProt O75164)
# Sequence of UniProt O75164 (O75164 whole entry, looked up, the tested form may be a part): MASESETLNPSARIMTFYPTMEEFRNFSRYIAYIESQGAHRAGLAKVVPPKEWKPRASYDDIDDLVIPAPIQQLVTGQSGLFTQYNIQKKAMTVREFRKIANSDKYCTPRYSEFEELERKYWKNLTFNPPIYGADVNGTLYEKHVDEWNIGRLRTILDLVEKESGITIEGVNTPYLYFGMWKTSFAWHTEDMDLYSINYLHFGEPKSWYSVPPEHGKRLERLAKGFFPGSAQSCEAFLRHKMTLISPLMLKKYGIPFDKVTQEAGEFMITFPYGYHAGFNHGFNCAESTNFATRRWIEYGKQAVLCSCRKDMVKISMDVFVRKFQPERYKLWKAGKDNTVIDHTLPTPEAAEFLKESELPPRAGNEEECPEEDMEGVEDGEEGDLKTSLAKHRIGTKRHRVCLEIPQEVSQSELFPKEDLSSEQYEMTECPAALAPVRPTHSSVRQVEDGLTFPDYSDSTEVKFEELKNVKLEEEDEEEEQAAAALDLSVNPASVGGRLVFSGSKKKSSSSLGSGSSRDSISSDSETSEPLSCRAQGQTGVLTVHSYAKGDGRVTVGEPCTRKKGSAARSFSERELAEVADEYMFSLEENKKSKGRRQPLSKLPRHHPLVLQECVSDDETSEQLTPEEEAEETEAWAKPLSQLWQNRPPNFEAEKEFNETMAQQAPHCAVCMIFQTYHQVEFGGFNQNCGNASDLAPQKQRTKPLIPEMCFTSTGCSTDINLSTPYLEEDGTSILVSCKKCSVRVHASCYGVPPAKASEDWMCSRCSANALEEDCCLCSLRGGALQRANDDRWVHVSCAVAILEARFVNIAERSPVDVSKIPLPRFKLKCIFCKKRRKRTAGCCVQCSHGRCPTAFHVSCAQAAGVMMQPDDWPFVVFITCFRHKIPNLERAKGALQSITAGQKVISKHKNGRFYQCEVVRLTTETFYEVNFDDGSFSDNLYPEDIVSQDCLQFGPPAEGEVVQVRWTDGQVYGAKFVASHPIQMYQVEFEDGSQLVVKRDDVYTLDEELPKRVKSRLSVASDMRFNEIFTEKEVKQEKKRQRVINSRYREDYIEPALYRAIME
# Experiment: qHTS Assay for Inhibitors of JMJD2A-Tudor Domain; also: nearly all actives have a fitted effect of over 50% in size
# Details: AlphaScreen JMJD2A-Tudor / H3K4me3 peptide binding; activity change, negative = inhibition: at 114 µM (top of the series)
# % is scaled to controls: 0 for no effect and ±100 for the full control effect; potency is read from the fitted curve at half-maximal effect; tags tell the direction and shape of the fitted curve.
Compound,Potency,"activity change, negative = inhibition"
Cc1c(-c2ccccc2)c(=O)oc2c(CN3CCCC3)c(O)ccc12,inactive,
CCOC(=O)c1sc(-c2ccc(Br)cc2)cc1N,inactive,
COc1ccc(NC(=O)C2CCN(C(=O)c3cccs3)CC2)c(OC)c1,active: 28.2 µM,
CCn1c2ccccc2c2cc(/C=N/NC(=O)c3ccc(O)cc3)ccc21,"inconclusive: 70.8 µM [inhibitor, partial curve]",
N#Cc1nc(-c2cccs2)oc1NCc1ccco1,"inconclusive: 56.2 µM [inhibitor, partial curve]",
O=C(CCCN1C(=O)/C(=C\c2cccs2)SC1=S)Nc1ccc(O)cc1,inactive,
CC1=CC2=NC(=O)CC(C)(C(=O)N(CC(=O)NC3CCCC3)c3ccccc3F)N2C=C1 (configuration not stated),inactive,
COc1cc2c(cc1OC)/C(=C/C(=O)c1cccc([N+](=O)[O-])c1)NCC2,"inconclusive: 28.2 µM [inhibitor, full curve]",
Cc1cc(OCC(=O)OCC(=O)N2c3ccccc3NC(=O)C2(C)C)ccc1Cl,"inconclusive: 39.8 µM [inhibitor, partial curve, poor fit]",
Cc1ccc(C(=O)Nc2ccccc2-c2ccccc2)cc1S(=O)(=O)Nc1ccccc1,"inconclusive: 89.1 µM [inhibitor, partial curve, poor fit]",
CCCC(C)NC(C)C(=O)NC1CCCC1 (configuration not stated),"inconclusive: 2.82 µM [inhibitor, single point]",
CN(C)CCN(Cc1ccco1)c1ccccn1,"inconclusive: 28.2 µM [inhibitor, single point]",
CC(=O)Nc1ccccc1NC(=O)c1ccc(C)cc1C,"inconclusive: 39.8 µM [inhibitor, full curve]",
COc1ccc(-c2nnc(Nc3nc4c(OC)cccc4s3)o2)cc1,"inconclusive: 25.1 µM [inhibitor, full curve]",
Fc1ccc(N2CCN(C(c3cccs3)c3nnnn3CCc3ccccc3)CC2)cc1 (configuration not stated),,inactive: -26.7% [at 11.4 µM]
CC(=O)c1ccc(S(=O)(=O)NCC(=O)N2CCN(C/C=C/c3ccccc3)CC2)cc1,inactive,
Brc1ccc(CN2CCc3nc(N4CCN(c5ncccn5)CC4)ncc3C2)cc1,active: 44.7 µM,
O=C(NCC(c1ccco1)N1CCc2ccccc21)c1ccccc1F (configuration not stated),"inconclusive: 50.1 µM [inhibitor, partial curve]",
CCOCCCNC(=O)C(c1ccc(OC)cc1)N(Cc1ccc2c(c1)OCO2)C(=O)CNC(C)=O (configuration not stated),inactive,
COc1ccc(-n2c(-c3ccccc3)cc3c2CCCC3=O)cc1,active: 31.6 µM,
O=C(NCc1ccncc1)c1ccc(Oc2ccccc2)cc1,active: 12.6 µM,
COc1ccc(/C=N/n2c(-c3cc(C)[nH]n3)n[nH]c2=S)cc1,active: 3.55 µM,
Cc1cc2oc(=O)cc(-c3ccccc3)c2c(C)c1-c1ccc(N(C)C)cc1,"inconclusive: 22.4 µM [inhibitor, full curve]",
CCc1nnc(NC(=O)Cc2cccs2)s1,"inconclusive: 17.8 µM [inhibitor, full curve, poor fit]",

Compound,Potency,"activity change, negative = inhibition"
Cc1[nH]n(C(N)=S)c(=O)c1N=Nc1cc(-c2ccc(Br)cc2)[nH]n1,"inconclusive: 44.7 µM [inhibitor, partial curve]",
CCCc1n(CC(O)COC2CCCCC2)c2ccccc2[n+]1C (configuration not stated),"inconclusive: 39.8 µM [inhibitor, single point]",
O=C1/C(=C/c2ccc(O)cc2)CCc2ccc([N+](=O)[O-])cc21,inactive,
COc1ccc(SC[C@H](C)CN2CC[C@H](NC(=O)OCc3ccccc3)CCC2=O)cc1,"inconclusive: 56.2 µM [inhibitor, partial curve]",
CCCCCn1c(=O)[nH]c2cc(C(=O)NCCCN3CCCCC3C)ccc2c1=O (configuration not stated),"inconclusive: 28.2 µM [inhibitor, partial curve]",
COc1ccc(C(=O)NNc2ncnc3c2cnn3-c2ccccc2)cc1,"inconclusive: 44.7 µM [inhibitor, partial curve]",
CCCCNc1c(-c2ccc(SC(C)CC)cc2)nc2ccccn12 (configuration not stated),"inconclusive: 79.4 µM [inhibitor, partial curve]",
Cc1nc(NS(=O)(=O)c2ccccc2)sc1C(=O)NN,inactive,
COC(=O)c1ccc(CSc2nc3c(c(=O)n2-c2ccc(F)cc2)SCC3)o1,"inconclusive: 39.8 µM [inhibitor, full curve, poor fit]",
O=C(CC1N=C2c3ccccc3N=C(SCc3ccccc3Cl)N2C1=O)NCc1cccs1 (configuration not stated),inactive,
Cc1cc(OCCN2CC(C)OC(C)C2)ccc1[N+](=O)[O-] (configuration not stated),active: 2.82 µM,
N=C1/C(=C\c2ccc(OC(=O)c3ccco3)cc2)C(=O)N=C2SC=NN12,"inconclusive: 100 µM [inhibitor, partial curve]",
Cc1cc(-c2n[nH]c(=S)o2)c(C)n1-c1ccccc1,"inconclusive: 56.2 µM [inhibitor, partial curve]",
COc1ccc(C(=O)N2CCCCC2C(=O)Nc2ccc(-n3nc(C)cc3C)cc2)o1 (configuration not stated),active: 15.8 µM,
O=C(NCCN1CCOCC1)c1cc(Cl)ccc1Cl,inactive,
CCc1nc(Nc2ccc(N3CCN(C(C)=O)CC3)cc2)c2oc3ccccc3c2n1,"inconclusive: 56.2 µM [inhibitor, partial curve]",
CCc1c(C)sc(NC(=O)CN2CCN(C(=O)c3ccco3)CC2)c1C(=O)OC,"inconclusive: 56.2 µM [inhibitor, partial curve]",
COC(=O)c1c(C)[nH]c(O)c1C=Nc1ccc(C(C)C)cc1,active: 44.7 µM,
Cc1ccc(NC(=O)C(C)Sc2nc(-c3ccccc3)cc(=O)[nH]2)cc1 (configuration not stated),inactive,
O=C(CSc1nc2ncc(Br)cc2[nH]1)c1ccc([N+](=O)[O-])cc1,"inconclusive: 70.8 µM [inhibitor, single point]",
Cc1ccc(/C=C/C(=O)NCc2ccccn2)o1,active: 50.1 µM,
CC(C)N1CC=C2C(C#N)=C(N)C(C#N)(C#N)C(c3ccccc3)C2C1 (configuration not stated),inactive,
C/C(=N\Nc1nc2ccccc2[nH]1)c1cccs1,"inconclusive: 56.2 µM [inhibitor, partial curve]",
